Consider 13 cell lines from the supplement of paper PMC4967469.

Assay in all cases: Viability of human cancer cell lines after 72 h of drug (GDSC screen)
Compound in one assay: CC(C)[C@H](C(=O)Nc1ccc(C(=O)NO)cc1)c1ccccc1 [AR-42]
The following applies: top dose 5.12 µM; top dose inferred. The protocol:
(§1)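 Human cancer cell lines in 384-well plates, medium with 10% serum, drug for 72 h over a 256-fold dose range (nine 2-fold or five 4-fold steps up to the top dose). Adherent lines were fixed and stained with the nucleic acid dye Syto60, suspension lines read with resazurin; signal relative to control wells, capped at 0 and 100%. One two-parameter sigmoid per drug and line, fitted in a mixed model over all curves with the slope shared within a line.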

Compound in the next assay: CS(=O)(=O)N1CCN(Cc2cc3nc(-c4cccc5[nH]ncc45)nc(N4CCOCC4)c3s2)CC1 [GDC0941]
The following applies: top dose 4 µM; screen: GDSC drug entry 1527; top dose inferred. The protocol:
as §1

Compound in a further assay: C[C@]12O[C@H](C[C@]1(O)CO)n1c3ccccc3c3c4c(c5c6ccccc6n2c5c31)CNC4=O [CEP-701]
The settings on record: top dose 2 µM; top dose inferred. The protocol:
as §1

Compound in the next assay: Cc1ccc(Nc2nccc(N(C)c3ccc4c(C)n(C)nc4c3)n2)cc1S(N)(=O)=O [Pazopanib]
The settings on record: top dose 8 µM. How it is done:
as §1

Compound in another assay: Cn1cc(C2=C(c3ccc(Cl)cc3Cl)C(=O)NC2=O)c2ccccc21 [SB 216763]
The following applies: top dose 10 µM; top dose inferred. How it is done: as §1

pIC50: −log10 of the molar value. The IC50 comes from the fitted curve, where viability falls to half of the control; a limit (>, <) means that the fit lies beyond the doses tested. AUC is the area under the same curve over the 256-fold range up to the top dose, as a fraction; values near 1 show little effect. For some of these results: Where the top dose is marked as inferred, it was derived from the fitted curves, not read from the paper. For some of these results: An entry number marks a drug with two screens in the source, which often give different values.

CAL-62 (thyroid, adherent): the AUC in the assay with AR-42 worked out at 0.608; in the assay with GDC0941 it was 0.766; with CEP-701 it was 0.731; in the assay with Pazopanib, 0.945; in the assay with SB 216763, 0.988. The pIC50 with AR-42 is 6.21; with GDC0941, 5.85; with CEP-701, 6.26; with Pazopanib it was less than 5.10; in the assay with SB 216763 it was less than 5.00.
With CAL-72 (osteosarcoma, adherent), the AUC with AR-42 is 0.954; in the assay with GDC0941, 0.85; in the assay with CEP-701, 0.617; with Pazopanib, 0.812; with SB 216763, 0.958. Besides, the pIC50 with AR-42 was less than 5.29; with GDC0941, 5.41; with CEP-701, 6.56; in the assay with Pazopanib it was 5.28; in the assay with SB 216763, less than 5.00.
Turning to CAL-120 (breast, adherent), the AUC stood at 0.687 with AR-42; 0.706 in the assay with GDC0941; 0.607 with CEP-701; 0.909 with Pazopanib; 0.977 with SB 216763. For the same cell line, the pIC50 is 5.90 in the assay with AR-42; 5.94 in the assay with GDC0941; 6.57 with CEP-701; less than 5.10 with Pazopanib; less than 5.00 with SB 216763.
With CCK-81 (large intestine, adherent), the AUC in the assay with AR-42 stood at 0.44; in the assay with GDC0941 it was 0.969; with CEP-701, 0.911; with Pazopanib it was 0.981; in the assay with SB 216763 it was 0.969. The pIC50 was 6.66 with AR-42; less than 5.40 in the assay with GDC0941; less than 5.70 with CEP-701; less than 5.10 with Pazopanib; less than 5.00 with SB 216763.
On to CFPAC-1 (pancreas, adherent), for which the AUC with AR-42 came out at 0.968; in the assay with GDC0941, 0.709; with CEP-701, 0.868; with Pazopanib, 0.917; with SB 216763, 0.956. For the same cell line, the pIC50 with AR-42 was less than 5.29; in the assay with GDC0941, 5.97; with CEP-701, less than 5.70; with Pazopanib, less than 5.10; with SB 216763, less than 5.00.
In the case of CHL-1 (melanoma, adherent), the AUC in the assay with AR-42 was found to be 0.417; with GDC0941, 0.645; with CEP-701, 0.238; with Pazopanib, 0.959; with SB 216763 it was 0.948. For the same cell line, the pIC50 with AR-42 was 6.72; in the assay with GDC0941, 6.21; with CEP-701, 7.64; with Pazopanib, less than 5.10; with SB 216763, less than 5.00.
Turning to CHP-126 (neuroblastoma, suspension), the AUC is 0.851 with AR-42; 0.975 with GDC0941; 0.73 with CEP-701; 0.987 with Pazopanib; 0.987 with SB 216763. Besides, the pIC50 was 5.39 in the assay with AR-42; less than 5.40 with GDC0941; 6.24 with CEP-701; less than 5.10 with Pazopanib; less than 5.00 with SB 216763.
For CHSA0011 (chondrosarcoma, adherent), the AUC came to 0.855 in the assay with AR-42; 0.727 with GDC0941; 0.741 with CEP-701; 0.955 with Pazopanib; 0.971 with SB 216763. The pIC50 was less than 5.29 in the assay with AR-42; 5.84 with GDC0941; 6.08 with CEP-701; less than 5.10 with Pazopanib; less than 5.00 with SB 216763.
Take CHSA0108 (chondrosarcoma, adherent): the AUC with AR-42 was 0.343; in the assay with GDC0941, 0.553; in the assay with CEP-701, 0.552; in the assay with Pazopanib, 0.93; with SB 216763, 0.982. For the same cell line, the pIC50 was 6.96 in the assay with AR-42; 6.45 with GDC0941; 6.75 with CEP-701; less than 5.10 with Pazopanib; less than 5.00 in the assay with SB 216763.
As for CHSA8926 (chondrosarcoma, adherent), the AUC with AR-42 was 0.979; with GDC0941, 0.654; with CEP-701 it was 0.769; with Pazopanib it was 0.832; with SB 216763, 0.92. For the same cell line, the pIC50 in the assay with AR-42 was less than 5.29; in the assay with GDC0941, 6.09; in the assay with CEP-701, 5.96; in the assay with Pazopanib, less than 5.10; with SB 216763 it was less than 5.00.
As for “COLO-678 (large intestine, semi-adherent)”, the AUC with AR-42 stood at 0.884; in the assay with GDC0941, 0.963; with CEP-701 it was 0.843; with Pazopanib it was 0.985; with SB 216763, 0.978. Further, the negative logarithm of the IC50 (pIC50) with AR-42 is less than 5.29; in the assay with GDC0941, less than 5.40; in the assay with CEP-701, less than 5.70; with Pazopanib it was less than 5.10; in the assay with SB 216763 it was less than 5.00.
On to COLO-679 (melanoma, adherent), for which the AUC worked out at 0.736 with AR-42; 0.906 with GDC0941; 0.681 in the assay with CEP-701; 0.84 with Pazopanib; 0.984 in the assay with SB 216763. Further, the pIC50 with AR-42 was 5.78; in the assay with GDC0941, less than 5.40; with CEP-701, 6.37; with Pazopanib, 5.19; with SB 216763 it was less than 5.00.
For the cell line COLO-680N (oesophagus, adherent), the AUC stood at 0.981 in the assay with AR-42; 0.967 in the assay with GDC0941; 0.951 with CEP-701; 0.98 with Pazopanib; 0.986 with SB 216763. Moreover, the pIC50 in the assay with AR-42 is less than 5.29; in the assay with GDC0941, less than 5.40; with CEP-701 it was less than 5.70; with Pazopanib it was less than 5.10; with SB 216763 it was less than 5.00.

Usually pIC50 stands for the negative decadic logarithm of the IC50, by convention in mol/L.
